From a collection of fitness landscapes (doi:10.1038/s41467-024-54723-y) come the findings set out here.

Whole data set: some 18,000 sequences, median “TetR repression strength (sort-seq, GFP reporter)” near 0.23, cut for the highest 2% near 0.68. The list shows a part of the results.

This test addresses TetR (class B, Tn10) (UniProt P04483). In words: TetR repression strength (sort-seq, GFP reporter) (relative to tetO2 = 1); higher = stronger repression. To be noted: E. coli. In short, it runs like this: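 E. coli SIG10-MAX carried a low-copy plasmid library with eight randomized operator positions between a constitutive promoter and sfGFP, with TetR constitutively expressed. Cells grew 5 h at 37 °C in LB with 50 µg/mL chloramphenicol, then 10^6 cells were FACS-sorted into 13 fluorescence bins, each Illumina-sequenced. Repression strength is the top bin index plus one minus the read-weighted mean bin, divided by the wild-type operator value. Three independent transformations; variants with ≥30 reads in all replicates and CV ≤0.5 were averaged.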
Chain of UniProt P04483 (P04483 whole entry): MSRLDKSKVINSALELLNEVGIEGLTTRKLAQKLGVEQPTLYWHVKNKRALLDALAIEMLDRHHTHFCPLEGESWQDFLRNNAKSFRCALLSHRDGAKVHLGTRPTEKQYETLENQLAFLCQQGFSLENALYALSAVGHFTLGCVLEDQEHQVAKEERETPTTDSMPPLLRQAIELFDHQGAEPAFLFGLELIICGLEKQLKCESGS
The sequence TCCCAATAAGTGTCAGAGA displayed a TetR repression strength of 0.263.
TCCCAGAAAGTCTGCGAGA registered a TetR repression strength of 0.141.
The sequence TCCCATCAAGTTGGGGAGA showed a TetR repression strength of 0.188.
Then TCCCTTTAAGTATCGGAGA, with 0.247; and TCCCTGAGAGTCGATGAGA, with 0.237.
Regarding TCCCGGGGAGTAAGGGAGA, the TetR repression strength turned out to be 0.315.
The sequence TCCCTGAGAGTTTTCGAGA had a TetR repression strength of 0.204.
Then TCCCTGAGAGTGATGGAGA, with 0.255.
To TCCCGTGAAGTGGACGAGA belongs 0.26; to TCCCAACGAGTATAGGAGA, 0.0801; to TCCCGGGTAGTTTGAGAGA, 0.111.
To TCCCGTTAAGTATGGGAGA belongs 0.312; to TCCCCGGGAGTCGAGGAGA, 0.526; to TCCCGTGTAGTAGCTGAGA, 0.463.
Regarding TCCCTTCTAGTTAGTGAGA, the TetR repression strength was determined as 0.295.
To TCCCATTTAGTCTGTGAGA belongs 0.192; to TCCCCCGCAGTGCGGGAGA, 0.246; to TCCCTGTTAGTCGATGAGA, 0.214.
Then TCCCGTTGAGTGATGGAGA, with 0.122.
The sequence TCCCGCCCAGTGAAGGAGA yielded a TetR repression strength of 0.169.
Then TCCCCTCTAGTCGAGGAGA, with 0.417; and TCCCAAACAGTGCCCGAGA, with 0.339.
Then TCCCGTGCAGTACGGGAGA, with 0.178; and TCCCTTGTAGTCAAGGAGA, with 0.25; and TCCCCAGTAGTGCCAGAGA, with 0.214.
TCCCGGAGAGTCATGGAGA gave a TetR repression strength of 0.232.
Then TCCCATCAAGTCGGTGAGA, with 0.0862; and TCCCCGCTAGTCATAGAGA, with 0.104; and TCCCGGGAAGTACGGGAGA, with 0.0188.
TCCCCAGCAGTAACAGAGA had a TetR repression strength of 0.255.
In the case of TCCCGGTTAGTGAGCGAGA, the TetR repression strength is 0.205.
Regarding TCCCAATGAGTAGGGGAGA, the TetR repression strength worked out at 0.0811.
To TCCCCAGAAGTGCGTGAGA belongs 0.0661.
To TCCCAGGGAGTCTGGGAGA belongs 0.244; to TCCCTGAAAGTTACGGAGA, 0.193.
On to TCCCTCCGAGTAGTGGAGA, for which the TetR repression strength was 0.292.
To TCCCTGCTAGTTGCAGAGA belongs 0.0649.
To TCCCGTCTAGTGCCTGAGA belongs 0.293.
Sequence TCCCGCAGAGTGGAAGAGA had a TetR repression strength of 0.347.
Then TCCCTACAAGTTTTTGAGA, with 0.223; and TCCCCTTTAGTGGCTGAGA, with 0.219.
TCCCATGGAGTGAGTGAGA yielded a TetR repression strength of 0.153.
To TCCCTTCGAGTTCTCGAGA belongs 0.207.
Consider TCCCGTCTAGTGTGTGAGA, for which the TetR repression strength is 0.237.
Then TCCCAGGAAGTAGGGGAGA, with 0.0815.
TCCCTGTGAGTGTGCGAGA had a TetR repression strength of 0.152.
The sequence TCCCAAACAGTACAAGAGA returned a TetR repression strength of 0.356.
To TCCCGTAGAGTGGCCGAGA belongs 0.0654; to TCCCGCTCAGTTGCTGAGA, 0.26.
As for TCCCCGACAGTTTAGGAGA, the TetR repression strength stood at 0.228.
To TCCCTACGAGTCGGCGAGA belongs 0.207; to TCCCCATTAGTCCCGGAGA, 0.118; to TCCCTTCGAGTTAATGAGA, 0.387.
To TCCCCTCCAGTTGGGGAGA belongs 0.263; to TCCCGCGTAGTGCGTGAGA, 0.321.
To TCCCGCCTAGTACCAGAGA belongs 0.382; to TCCCCAATAGTTGGAGAGA, 0.34; to TCCCCGGTAGTTCACGAGA, 0.313.
As for TCCCTTTCAGTGGCCGAGA, the TetR repression strength worked out at 0.555.
To TCCCAATAAGTGCTCGAGA belongs 0.407; to TCCCAGGTAGTATCAGAGA, 0.215.
The sequence TCCCAAGGAGTCCCTGAGA returned a TetR repression strength of 0.288.
Regarding TCCCGCTAAGTACTTGAGA, the TetR repression strength is 0.167.
Then TCCCCATGAGTCGTAGAGA, with 0.319.
To TCCCGTGGAGTCCTCGAGA belongs 0.221; to TCCCTAACAGTGCCCGAGA, 0.377.
TCCCCGCGAGTGATCGAGA: the TetR repression strength was found to be 0.375.
To TCCCGTCTAGTTAGTGAGA belongs 0.719; to TCCCAGAAAGTGTGTGAGA, 0.213; to TCCCGCACAGTTCAGGAGA, 0.284.
To TCCCATGCAGTGAGCGAGA belongs 0.269; to TCCCGTCCAGTCAATGAGA, 0.385.
To TCCCAACCAGTAGTTGAGA belongs 0.545.
For the sequence TCCCTCTAAGTAGTGGAGA, the TetR repression strength is 0.0907.
For the sequence TCCCTGCCAGTATCGGAGA, the TetR repression strength came to 0.247.
To TCCCGCAGAGTTGCTGAGA belongs 0.271; to TCCCTAGGAGTGTCGGAGA, 0.496.
To TCCCTCAGAGTCGGCGAGA belongs 0.225; to TCCCTTACAGTTCGCGAGA, 0.373.
To TCCCGATCAGTCGGTGAGA belongs 0.335.
The sequence TCCCATAAAGTGTTCGAGA yielded a TetR repression strength of 0.401.
To TCCCCGGAAGTGCAAGAGA belongs 0.628; to TCCCCAGAAGTATGAGAGA, 0.26.
Then TCCCGAGGAGTTACCGAGA, with 0.216; and TCCCTGATAGTGTCGGAGA, with 0.213.
Then TCCCCTCCAGTATTCGAGA, with 0.315.
As for TCCCACAAAGTTTTAGAGA, the TetR repression strength came to 0.207.
Then TCCCGTGTAGTATGGGAGA, with 0.39.
Then TCCCGACGAGTGAGGGAGA, with 0.303.
Then TCCCCGTGAGTCAAGGAGA, with 0.28.
In turn, TCCCCGGGAGTCTGGGAGA came in with a TetR repression strength of 0.161.
Then TCCCGCGAAGTTATGGAGA, with 0.415; and TCCCTGAGAGTCTGAGAGA, with 0.196; and TCCCTAGTAGTCCTGGAGA, with 0.137.
Then TCCCCGAGAGTACACGAGA, with 0.262.
Sequence TCCCTTGTAGTGCTAGAGA gave a TetR repression strength of 0.272.
To TCCCAGGGAGTTACGGAGA belongs 0.31; to TCCCTATCAGTGTCTGAGA, 0.556; to TCCCGAGAAGTGACGGAGA, 0.17.
Then TCCCTCAAAGTAAGGGAGA, with 0.189; and TCCCGGCCAGTTCGCGAGA, with 0.343; and TCCCACGCAGTGAACGAGA, with 0.326.
